Consider 27 compounds from PubChem BioAssay AID485344 (National Center for Advancing Translational Sciences (NCATS), 2010).

The structures appear in SMILES notation. The campaign covered roughly 340,000 compounds. About 6,900 (2%) were called active. This is a selection; strong and weak results do not stand in their true shares. Entries without a call were filed so in the source.

Sequence of UniProt P14416 (P14416 whole entry, looked up): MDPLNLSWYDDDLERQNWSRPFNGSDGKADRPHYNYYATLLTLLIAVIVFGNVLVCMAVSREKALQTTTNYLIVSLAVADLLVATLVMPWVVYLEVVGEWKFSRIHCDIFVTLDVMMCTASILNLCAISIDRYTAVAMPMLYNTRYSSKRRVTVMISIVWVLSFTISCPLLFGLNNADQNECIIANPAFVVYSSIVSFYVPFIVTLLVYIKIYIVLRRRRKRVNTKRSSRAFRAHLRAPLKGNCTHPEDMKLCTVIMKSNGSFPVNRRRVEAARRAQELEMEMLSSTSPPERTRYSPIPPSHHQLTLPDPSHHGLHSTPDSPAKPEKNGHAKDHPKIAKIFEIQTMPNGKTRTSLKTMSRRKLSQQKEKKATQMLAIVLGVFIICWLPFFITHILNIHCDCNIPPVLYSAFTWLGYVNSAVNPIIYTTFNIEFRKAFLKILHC

The target in the assay is D(2) dopamine receptor (Homo sapiens) (UniProt P14416). The assay is described as follows: HTS Assay for Allosteric Antagonists of the Human D2 Dopamine Receptor: Primary Screen for Antagonists. Also: 0% is about no effect. To be noted: HEK293 TREx D2 cells, calcium flux, dopamine EC80; at 10 µM; stronger effect = higher value. In a few lines:
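Inhibition of EC80 dopamine-driven calcium flux, recorded kinetically, defines activity here; cells are a tetracycline-induced HEK293 T-REx line expressing force-coupled D2.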
Regarding `COc1ccccc1C(=O)Nc1cccc(C(=O)OCc2cc(=O)n3ccsc3n2)c1`, the inhibition was -15%. As to `Cc1cccc(NC(=O)CSc2nc(-c3ccccc3)cc(=O)[nH]2)c1C`, the inhibition worked out at 5.93%. With `Cc1ccc(C(C)C)c(OCC(O)CN2CCN(c3ccccc3F)CC2)c1` (configuration not stated), the inhibition was determined as 4.85%. As to `Cc1ccc(NC(=O)CCC(=O)N2Cc3ccccc3Oc3ncccc32)c(C)c1`, the inhibition was -4.92%. As to `CCOc1ccc(CCNC(=O)CN2C(=O)COc3ccc(S(=O)(=O)N4CCCC4)cc32)cc1`, the inhibition was -13%. In the case of `CCn1c(=N)c(C(=O)NCc2ccccc2)cc2c(=O)n3cccc(C)c3nc21`, the inhibition worked out at 18.7%. The figure for `Cc1cccc(-c2nc(C)c(CCNC(=O)C(=O)Nc3ccccc3C#N)s2)c1` is 10.1%; for `COc1ccc(-n2nnnc2C2CCN(S(=O)(=O)c3ccc(NC(C)=O)cc3)CC2)cc1` it is -2.71%. Consider `COc1ccc(Cl)cc1S(=O)(=O)NCc1ccc2c(c1)CCN2C(=O)c1cccc(C)c1`, for which the inhibition was -20.6%. Take `CC(C)c1ccc(C2NC(=O)c3n[nH]c(-c4cccs4)c32)cc1` (configuration not stated): the inhibition turned out to be 7.16%. Turning to `CCS(=O)(=O)c1ncc(Cl)c(C(=O)Nc2ccc(S(=O)(=O)N(C)c3ccccc3)cc2)n1`, the inhibition was 7.66%. For `Cc1nn(-c2ccc(N3CCOCC3)nn2)c(C)c1CCC(=O)NCc1ccc(Cl)cc1`, the inhibition turned out to be 3.43%. As to `CC1CCCCN1CCNC(=O)c1ccc(Cn2c(SCc3ccccc3)nc3cccnc32)cc1` (configuration not stated), the inhibition is -2.81%. Under `Cc1cccc(C)c1Nc1sc(C(=O)c2ccccc2)c(N)c1S(=O)(=O)c1ccccc1` stands 24.9%; under `COc1ccc2nc3sc(C(=O)NCCc4ccc(Cl)cc4)cc3cc2c1`, 6.14%. As for `C=Cc1ccc(CN2C(=O)N(c3ccc(C)c(C)c3)S(=O)(=O)c3ccccc32)cc1`, the inhibition came out at 21%. The figure for `COc1ccccc1C(=O)Nc1nnc(SCc2cc(=O)c3ccccc3[nH]2)s1` is 18%; for `CCN(C(=O)c1ccc(C(=O)N(CC)c2ccccc2C)cc1)c1ccccc1C` it is 10.4%. Take `CCOc1ccc(NC(=O)c2cc3cc4ccc(C)cc4nc3o2)cc1`: the inhibition was -7.16%. Take `Cc1ccc(-n2c(=O)c3ccc(C(=O)NCc4ccco4)cc3n(Cc3ccccc3Cl)c2=O)cc1`: the inhibition is -9.01%. `Brc1cccc(-c2nnn3c2nc(NC2CCCCC2)c2ccccc23)c1`: the inhibition was -28.5%. Turning to `COCCNC(=O)CSc1c(C)cnc2c1c(=O)n(C)c(=O)n2C`, the inhibition came out at 21.5%. The figure for `Cc1ccc(NC(=O)Cn2cnc3c(oc4ccccc43)c2=O)cc1Cl` is 1.06%. The figure for `CCCn1c2ccccc2c2cnn(CC(=O)NCCc3ccc(S(N)(=O)=O)cc3)c(=O)c21` is 4.55%.

With `Cn1c(NCc2cccc(Cl)c2)nc2ccccc21`, the inhibition was -7.37%.

For `COc1cc(OC)c(NC(=O)C2=C(C)C(=O)OC23CCN(C(C)=O)CC3)cc1Cl`, the inhibition is -17.9%.

As for `O=C(NCc1ccccc1)c1cccn1-c1nnc(N2CCCCC2)s1`, the inhibition was 3.05%.
